Measurements from the supplement of paper PMC11417369.
± gives the standard deviation of the averaged measurements. The list shows a part of the results.

Test system: PfAP2-I AP2 domain 3 (GST-tagged)
Test: gcPBM binding intensity (ln(normalized median fluorescence intensity)); higher = stronger DNA binding
Summary of the method: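 Binding of GST-tagged P. falciparum DNA-binding domains, expressed in E. coli and used at about 25 μg on average, was carried out for 1 h in 1× PBS containing 1% milk, 0.2 mg/ml BSA, 0.5% salmon testes DNA and 0.03% Triton X-100. The target was an Agilent 4 × 180k array of primer-extended double-stranded 36-bp intergenic genomic probes plus negative controls, read with Alexa488 anti-GST antibody at 488 nm. Binding intensity is the highest Masliner-normalised natural-log median intensity across replicate spots of either probe orientation.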

Sequence	gcPBM binding intensity (ln)
ATATATATATGTATGTATATATATATATATGTTTGA [GTGCAC_negctrl_site561]	9.05 ± 0.11
GTATCAATAAAAAACAGTACATATATAATATATTTA [XGTACX_site1083]	7.64 ± 0.43
AAAAAAAAGGAAATAACACACATGTATATATCTATA [CACACA_site6856]	7.42 ± 0.53
TTCATATAGAATTGTACACACAAAAACGACATTGTG [CACACA_site7061]	7.96 ± 0.25
TTTTTAAAAATATACACACACAGATATTATATATAT [CACACA_site786]	8.31 ± 0.6
ATATATGTTCCTTTTACACACATAATCTTTTTTTTA [CACACA_site2661]	8.04 ± 0.7
AAAATATAATATAATGCACACATAAAAAAAAAAAAA [CACACA_site7989]	11.1 ± 0.49
ATATTGTGTTATAAATGTACACAATTTCCTTTCATA [XGTACX_site7481]	7.78 ± 0.46
TTTAAAAAAAAAAATACACACATAAAAGTTTTCAAA [CACACA_site6471]	7.47 ± 0.57
TACAAAAGCTATAACATTCACCACATTATAAAAATA [CACACA_negctrl_site1112]	7.78 ± 0.18
TTACAAATATTATAATGTACCCATTTTTTTTGCCTT [XGTACX_site6612]	7.83 ± 0.33
TTTTCATTAAGATACTTATAATAGTTTATTAGTAAA [CACACA_negctrl_site586]	7.38 ± 0.61
AAAATATATAAATATACATGCATAATTAATAGTATA [TGCATGCA_site804]	7.65 ± 0.61
AATTCAAAGAAAAACTGTACGTGTAGCAAACATCCT [XGTACX_site599]	7.91 ± 0.46
TAATATGAAGATGGCAGTACTCTAGTCAATTTTTAC [XGTACX_site5375]	7.74 ± 0.69
ATATATTTTATACATACACACATATATATATTTTTT [CACACA_site3940]	7.93 ± 0.52
TGATTAAATCAAGAAAGTACAAAATGAAATATATAA [XGTACX_site4319]	7.97 ± 0.45
AAAATAATTTTATAGTTGCACTATATCGTATACAAT	9.25 ± 0.38
TAAAGTGTAAAATTCACACACATATAAATAAATATA [CACACA_site6765]	7.63 ± 0.4
TTAATTATGTTTTGGTGTACAATAAATTGAATAGAT [XGTACX_site3306]	8.24 ± 0.4
CTACTTAATATTTGTACACACATATTTAACCTACTA [CACACA_site5725]	8.32 ± 0.2
ATATATATTTATATATGTACATATTTTTGTGTATTT [XGTACX_site1183]	7.81 ± 0.49
ATGTTATAATTTAGTGTGCACATATTAAGAGGAACA	10.3 ± 0.099

Sequence	gcPBM binding intensity (ln)
ATATATATATATATATGTACATAATAATTTTATAAA [XGTACX_site5105]	9.31 ± 0.48
AATAATAATAGAAACACACACACATTTTTAATAATA [CACACA_site1217]	7.62 ± 0.49
TCCATTGTCACCTTTTGTACTTAAATTTTTTCCTCC [XGTACX_site1573]	8.29 ± 0.43
CTTTTTTTTTTTTTTTGTCCGTATGAGGGACCTATA [XGTACX_site8839]	7.82 ± 0.42
CAAAAATTACCCTTGTGTACACATATATTATATGTA [XGTACX_site1124]	8.41 ± 0.23
ATAAAAAAATCAGACACACACACGTAAACACATACA [CACACA_site5529]	8.06 ± 0.35
ATATCATCTTCTCTATCATTTTTTTTTTTTTTTTTT [CACACA_negctrl_site1220]	8.74 ± 0.34
TGAGATAAATGTGGTAGTACATTTTTTTTATATATA [XGTACX_site1918]	7.95 ± 0.35
CTATTTGGGGGAAGAGTGCATGACATGAATATAAAA	10.5 ± 0.36
AAAAGGAAGATATATACACACATACAAATATATATA [CACACA_site5236]	7.97 ± 0.83
TTTTTTTTTTTTTTCACACACTAATAATATTATCAT [CACACA_site4417]	8.24 ± 0.53
ATAAATTTTTAAAAATATGAATTATGTAATTTGTGA [CACACA_negctrl_site1621]	7.51 ± 0.49
CTATATTATAAATATACACACATATCTTAAGTATAA [CACACA_site3096]	7.7 ± 0.46
TTGATGTATACAATGTAGATTATTTAATATTTCAAC [CACACA_negctrl_site73]	7.54 ± 0.54
ATTAGTATTAGATGATGTACATTTATATTGAAATAT [XGTACX_site8537]	7.7 ± 0.4
ATAAAAATACAGTTAACACACATGTGTATTTATATG [CACACA_site7727]	7.82 ± 0.55
GAAAACGTTTGAAGTTGTACATATGTATAAAAAGAA [XGTACX_site2304]	8.48 ± 0.28
TGTTATTTAAATAATTCTTTTTAAAAGATGAATTAT [CACACA_negctrl_site1226]	7.43 ± 0.33
ATGGTCTGTTAAAGATGTACTTTTTAAAAATAAACG [XGTACX_site2583]	7.99 ± 0.39
ATAATATAACACAAATGTACAAAAAATAAATAAATA [XGTACX_site385]	7.88 ± 0.64
AACAAACACAGACACACACACACACCCAAATGATTA [CACACA_site2431]	8.06 ± 0.28
TATATATATACTTAATGTACATATATATATATATAT [XGTACX_site3102]	9.2 ± 0.44
